Here are results for 22 molecules from publication PMC12136788.

Sequences and labels used below:
T1: UNK ZnF1-3 (human, UniProt Q9C0B0 31-174)
T1 sequence: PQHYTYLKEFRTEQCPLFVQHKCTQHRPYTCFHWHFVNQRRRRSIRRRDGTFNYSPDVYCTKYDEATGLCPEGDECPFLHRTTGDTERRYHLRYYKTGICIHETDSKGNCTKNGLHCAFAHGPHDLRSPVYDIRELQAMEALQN

B1: 75493018_75493138_318_CDS_ENSMUSG00000017776_ENSMUST00000017920|mouse|control|control (ssRNA)
RNA: GGGAGUUCUACAGUCCGACGAUCCACUGGAGGGCGCGGGCCGCUGCUGUUGAUGAUGUAGUGGGAGACGCGCGAGUUUUCGGAGACGCUAAGCACAUAGUCCCCGGGGCUGGUGCUCGAGUCCCGCACCAGGAACACCCCGUGCAACAGAGGAUUGAGCAUCA
B2: chr7:11082375:11082376:+_ENSG00000106443_ENST00000423760|hu_hu|FALSE|FALSE (ssRNA)
RNA: GGGAGUUCUACAGUCCGACGAUCUUUUUGGUCUUUCUUGGCAUCCUUGUAAGAGGAGGAUCCAGACAUCCAAGAUGGUAAUGUAGUUUACAGGUAUCACACAAUAAAAGAAGAUGCUGAUCAUGGUUCUUCUUACAAAUCCCACAACAGAGGAUUGAGCAUCA
B3: chr19:47223328:47223329:-_ENSG00000090372_ENST00000263280|hu_hu|motif|central (ssRNA)
RNA: GGGAGUUCUACAGUCCGACGAUCAGCAGGAGCUCAAGGGGAGAACCUGGCACCUUCUGGAGUCUUGGAAAAACUGAUCCCGGAAGACACCCGGCCCUGGCUGUGCUGCCCUCUGGAAAGCAGCUCUGAUACCAGGAGCGGCUGCAACAGAGGAUUGAGCAUCA
B4: chr1:39494447:39494448:+_ENSG00000168653_ENST00000372967|hu_mus|hu_hu_hu_mus_False|38_68 (ssRNA)
RNA: GGGAGUUCUACAGUCCGACGAUCGCACCGAGCGGCGUUCUUAUAGGGCUGUUCUGCGCUUAGGAACGUCAACCAUCGGUCCAGGCUGAUGCCCAGCCUUUUCUGGAUGUCAAGGAAAGGCAUGGCUCUGCAGUGCCCUUGUCACAACAGAGGAUUGAGCAUCA
B5: chr1:224585847:224585848:-_ENSG00000162923_ENST00000295024|hu_hu|FALSE|FALSE (ssRNA)
RNA: GGGAGUUCUACAGUCCGACGAUCUCCAAAACAUGAAUGAAUUGUAUAAAACCCUUGUGUAACACCUUGAUACUUUCUUACUAAAACUCUGUCUUGCAAGUCCCAUAAAUGAACUCCCUGAGUUGCUACAUUUAACAAAGCUAACAACAGAGGAUUGAGCAUCA
B6: 97543011_97543131_3568_3pUTR_ENSMUSG00000038437_ENSMUST00000044730|mouse|control|control (ssRNA)
RNA: GGGAGUUCUACAGUCCGACGAUCCAGGCUAGGAGCCUGUCCUCCCGACCCUCUGAAGCAGCCAGUGCAGUGAGGGGUGGGCCAGGUGAAGGGCUCCCUCCAGUCUCUCUCCUCCAUGUGCACCUGGAACGCCAGGCAUGCACUCAACAGAGGAUUGAGCAUCA
B7: 67432010_67432130_1493_CDS_ENSMUSG00000022048_ENSMUST00000022629|mouse|control|control (ssRNA)
RNA: GGGAGUUCUACAGUCCGACGAUCGAUGACCAAGUCAGCAUCAGAUCCCACCGAGAUGCGACCUUUCCGGGGGUAAAGGUUGAAGACUUUGGCUGCGUUGGUGCUGGUCACAGCCACAAACUGAUUCUCAUCCAUCUUCCCAGUCAACAGAGGAUUGAGCAUCA
B8: 112352971_112356265_2139_CDS_ENSG00000108055_ENST00000361804|human|control|control (ssRNA)
RNA: GGGAGUUCUACAGUCCGACGAUCUUCACCUAGUUCUUCUUCUGCUUUUCUAACAUCUUUUUGCAAUUCAAGUCGAGACUUCCUUGUGUCAUAAUAACCCCCAGUUAGAGCACCCCGAUGGCUGACUUGGUCACCUUCCAAAGUCAACAGAGGAUUGAGCAUCA
B9: chr4:115894766:115894767:+_ENSMUSG00000028698_ENSMUST00000030464|mus_hu|mus_mus_mus_hu_True|28_98 (ssRNA)
RNA: GGGAGUUCUACAGUCCGACGAUCUUCCACACGGAAAGUACUUGGGGGUUUUCCAACGGCCAGUACCAGUCCGGCCAAACUACCCGAACAGGGUCCUCCCCCUCUCUUCUCUCCUCCACAACAAAAUGCCCCCGAACUUUCAAGCAACAGAGGAUUGAGCAUCA
B10: chr7:151048522:151048523:+_ENSG00000013374_ENST00000566856|hu_mus|hu_hu_hu_mus_True|8_58 (ssRNA)
RNA: GGGAGUUCUACAGUCCGACGAUCCUGUUUCUUAUUUAUUACGAUCUUGAUGUAAUUUUCUUGAAAUCCGAAAGUUUCAGCUAUUUUACACCUCAGGUCUCUACCAGUGACAUGCAAGCGGGUCUCCAACAAGUUUUUCUUAUCCAACAGAGGAUUGAGCAUCA
B11: chr13:55314627:55314628:+_ENSMUSG00000021488_ENSMUST00000099490|mus_mus|motif|central (ssRNA)
RNA: GGGAGUUCUACAGUCCGACGAUCCUCAGAAAAAUUGGAUUGACCAUUACCGAAAGGGCUGUCCUUGUCUUCGGAGGCAUCGGAAUUCACCGGAUUAGAAAAGGACAGCAGACAAUUUCUUCUAGAUAAUUCACAAGUCCGAUCCAACAGAGGAUUGAGCAUCA
B12: 39978172_39979131_505_5pUTR_ENSG00000121892_ENST00000303538|human|control|control (ssRNA)
RNA: GGGAGUUCUACAGUCCGACGAUCGCUUGGGCUGCGCGGUGAAGUCCAUCCUGGGGGACAACUUUUGGUUCACAGUCCUCUACCGGCCUCUCCUCCUCAUGCGGGCGGAAGGUGCAUCGAGCGCCCGGGCCUCUGUCAGGUGGUCAACAGAGGAUUGAGCAUCA
B13: chr2:217001844:217001845:+_ENSG00000079246_ENST00000392132|hu_hu|hu_hu_hu_mus_False|28_58 (ssRNA)
RNA: GGGAGUUCUACAGUCCGACGAUCACCAACUUGAGGAUUAGAUCUUUUGUCAUAAGCAUAUCGGACGAUGGCGACCAUGUCUAAGUCAUCCAAAGCAUGAACGAGAGAGGAAAGUGCAACAGCUGCCGCCUCAUCAUCCUUUGCCAACAGAGGAUUGAGCAUCA
B14: chr2:65315752:65315753:-_ENSG00000138069_ENST00000409751|hu_mus|FALSE|FALSE (ssRNA)
RNA: GGGAGUUCUACAGUCCGACGAUCACCAGCUGUAGCUCCAGGACCCAUUCGCUUUUUAAUCUCAGCUGCCAUCGUCAUGAAAGACUGUUCUACAUUCGUUGCGUUCUUAGCACUGGUUUCCAAAAAUGGAAUUCCAAGGGAAUCCAACAGAGGAUUGAGCAUCA
B15: 10882734_10882854_1689_CDS_ENSMUSG00000090112_ENSMUST00000044053|mouse|control|control (ssRNA)
RNA: GGGAGUUCUACAGUCCGACGAUCUUUUGUUUUAUCAAAUACAUCUUCUUUGUAAUUCUUCCCCAGUGUAAAAGUCCCAGAGAAACCAUGGCCUUUGAUCUGUUUCACAAGACCUUCAAAGAUUAAACAUUUCAACAUCCGCUUCAACAGAGGAUUGAGCAUCA
B16: 8980754_8980874_117_5pUTR_ENSMUSG00000066643_ENSMUST00000085745|mouse|control|control (ssRNA)
RNA: GGGAGUUCUACAGUCCGACGAUCAUCGGAGAAGCUCCCGUCGCCUGGCAACCACCGCCGCCCAGUCGCAUCCGGGGCGCUUAGAGAACUUCCGGCGUGGCCUCCCGCCCCGUGUUGGUCGUCGUGCGCCUGCGCGGGCGAUGGCAACAGAGGAUUGAGCAUCA
B17: chr5:6374528:6374529:-_ENSG00000133398_ENST00000255764|hu_hu|motif|central (ssRNA)
RNA: GGGAGUUCUACAGUCCGACGAUCAGCUAGAGCCCUCUCCAGGCACUCUUUGGUGUAGAGCUGGGGAUUUCGACCUUGAUCGGUAUAUUCAAAAACUUCUAACGGUACAGUAAUAUCAUGAAGCUGCUGUCUGCACUUGUCAAUCAACAGAGGAUUGAGCAUCA
B18: chr14:31998760:31998761:-_ENSMUSG00000021910_ENSMUST00000163846|mus_mus|FALSE|FALSE (ssRNA)
RNA: GGGAGUUCUACAGUCCGACGAUCUGCAGGCAGAAUGGCCACAUGAAGGACACCCCAAAGCACAAGACAGGUACAGACACUAUGGAGCUGGGAAGGCUUUCCAGCUCUGGAGUCACAAAAGGAAAAACAGCUUUUUGUCGUCUCCAACAGAGGAUUGAGCAUCA
B19: chr9:120864499:120864500:+_ENSMUSG00000006932_ENSMUST00000007130|mus_mus|FALSE|FALSE (ssRNA)
RNA: GGGAGUUCUACAGUCCGACGAUCGUAAUUAUUGCAAGUGAGGUUAGAGAGAAUUCCAGCUGCACAGGUGACCACAUUUAUAUCAUCGGAACCCAGAAGCUGCACUAGAGUCCCAAGGAGGCCUUCCAUCCCUUCCUGCUUAGUCAACAGAGGAUUGAGCAUCA
B20: chr16:23446027:23446028:-_ENSG00000168434_ENST00000307149|hu_mus|FALSE|FALSE (ssRNA)
RNA: GGGAGUUCUACAGUCCGACGAUCGUAGUAUGCAAGGAGCUGGGGCAUCCGGUCGAUUUCAGUAAACACCUUCACAAACACUUUAGACUGAUCCACAGACUGAGAGGUGAACGAUGCUACGAUCUGGGGGCUGGCCAGGGCCUCCAACAGAGGAUUGAGCAUCA
B21: chr13:47345604:47345605:-_ENSG00000139684_ENST00000378720|perfect_dup|FALSE|FALSE (ssRNA)
RNA: GGGAGUUCUACAGUCCGACGAUCCAGGUACUUAGCAUGGUGUCUGAUGUGGUCAGCGAUGAAAGUUGCAAUGAAGUAGUAGCUAUGAUCAUAACCCUCUUGUAGUCUAAACACAACAGGGAUUUUCUUCUCUGUGCAGGCAGCCAACAGAGGAUUGAGCAUCA
B22: chr19:55172109:55172110:-_ENSMUSG00000024978_ENSMUST00000061856|mus_mus|motif|central (ssRNA)
RNA: GGGAGUUCUACAGUCCGACGAUCGUGUGUUUACAUCGGCCAAGGCUGUAUUCCGAUGAACUGGGCAGAUAAGAAACGUCGGUUGUGCCAACUGUCACUGAAGACUCCUCCAUGGCAGAACGUGCAAGUCCCAAACCAUGUGCUCAACAGAGGAUUGAGCAUCA

The other results are listed elsewhere or left out.

This experiment has as its target T1, UNK ZnF1-3. The experiment is described as follows: nsRBNS (natural sequence RNA bind-n-seq); RBNS binding buffer (assumed for nsRBNS): 25 mM Tris pH 7.5, 150 mM KCl, 3 mM MgCl2, 0.01% Triton X-100, 500 ug/ml BSA, 20 U/ml SUPERase-In, 4 C; UNK is unkempt and MSI1 is Musashi-1; names of the RNAs are library labels; protein concentration not given here; high values mean tight binding.
Regarding B1, the binding signal is 0.961 enrichment R.

B2 registered a binding signal of 1.56 enrichment R. With B3 the figure was 0.897 enrichment R.

As to B4, the binding signal is 0.5 enrichment R. With B5 the figure was 1.07 enrichment R; with B6, 0.556 enrichment R; with B7, 1.12 enrichment R. With B8 the figure was 0.804 enrichment R; with B9, 1.33 enrichment R; with B10, 0.682 enrichment R. In the case of B11 it was 0.904 enrichment R; in that of B12, 0.673 enrichment R; in that of B13, 1.64 enrichment R. B14 yielded a binding signal of 0.963 enrichment R. Consider B15, for which the binding signal was 0.887 enrichment R. In the case of B16 it was 0.425 enrichment R. B17 came in with a binding signal of 1.08 enrichment R. For the molecule B18, the binding signal was 1.35 enrichment R. With B19, the binding signal is 1.49 enrichment R. In the case of B20 it was 1.17 enrichment R. In the case of B21 it was 1.16 enrichment R; in that of B22, 0.919 enrichment R.
